We go through one molecule from patent US20120251557A1 (VERENIGING VOOR CHRISTELIJK HOGER ONDERWIJS …, published 2012).

For assay [1], the target named is T1, secreted tumor-associated MUC1 from the supernatant of ZR75 tumor cells (UniProt P15941 24-1097, limits assumed).
T1 construct: Coated on ELISA plates, or loaded on beads through MUC1 antibodies; also called secreted MUC1 from tumor cell line ZR75
Put plainly: ELISA on coated MUC1 from ZR75 supernatant; inhibited by EGTA. The text has this:
Example 2, FIG. 8. MGL-Fc detects secreted MUC1 from tumor cell line ZR75. FIG. 8A, MUC1 was harvested out of the supernatant of cultured ZR75 tumor cells and coated on ELISA plates. Both MGLFc and DC-SIGNFc were used to look for carbohydrate-binding epitopes expressed on tumor-associated MUC1. […] Furthermore, EGTA, which inhibits lectin binding to carbohydrates, illustrates that the recognition of MGL to MUC1 is carbohydrate mediated. FIG. 8B, in a second experiment, the tumor-associated MUC1 were coated on fluorescent beads coupled with MUC1 antibodies. Fluorescent MUC1-coupled beads were added to MGL-expressing CHO cells and untransfected CHO cells.
This experiment is depicted in FIG. 8 of Example 2. In FIG. 8A, MUC1 was harvested out of the supernatant of cultured ZR75 tumor cells and coated on ELISA plates. Both MGLFc and DC-SIGNFc were used to look for carbohydrate-binding epitopes expressed on tumor-associated MUC1. […] Furthermore, EGTA, which inhibits lectin binding to carbohydrates, illustrates that the recognition of MGL to MUC1 is mediated by the expression of carbohydrates.

Assay [2] addresses T2, MUC1 on transfected CHO cells (UniProt P15941 24-1255, limits assumed).
T2 construct: whole, on cells; also called CHO-MUC1
Put plainly: flow cytometry: MGL-Fc 0.5 µg/ml on CHO-MUC1 and parental CHO cells. Here is the method:
Chinese hamster ovary cells (CHO) cells and CHO cells transfected with MUC1 were incubated with MGL-Fc (0.5 μg/ml) in Tris-sodium buffer for 30 minutes at room temperature. The cells were washed and further incubated with FITC-labeled goat anti-human IgG (Jackson Laboratories) for 30 minutes. Binding was analyzed by flow cytometry.
CHO cells were transfected with the MUC1 protein and binding of MGL-Fc to these cells to MGL was measured by flow cytometry. MGL-Fc specifically interacted with MUC1 transfected into CHO cells, whereas parental cells are not bound (Example 8, FIG. 1A). Next, dexamethasone-treated DC were incubated in the presence of CHO cells or CHO cells expressing MUC1.
On the technique in general: In flow cytometry, cells or beads pass a laser one at a time.

Assay [3] concerns the target T3, CD45RO from human PBL (human, UniProt P08575-4 26-1145).
T3 construct: Probed with anti-CD45RO after capture on MGL-Fc
T3 sequence (looked up): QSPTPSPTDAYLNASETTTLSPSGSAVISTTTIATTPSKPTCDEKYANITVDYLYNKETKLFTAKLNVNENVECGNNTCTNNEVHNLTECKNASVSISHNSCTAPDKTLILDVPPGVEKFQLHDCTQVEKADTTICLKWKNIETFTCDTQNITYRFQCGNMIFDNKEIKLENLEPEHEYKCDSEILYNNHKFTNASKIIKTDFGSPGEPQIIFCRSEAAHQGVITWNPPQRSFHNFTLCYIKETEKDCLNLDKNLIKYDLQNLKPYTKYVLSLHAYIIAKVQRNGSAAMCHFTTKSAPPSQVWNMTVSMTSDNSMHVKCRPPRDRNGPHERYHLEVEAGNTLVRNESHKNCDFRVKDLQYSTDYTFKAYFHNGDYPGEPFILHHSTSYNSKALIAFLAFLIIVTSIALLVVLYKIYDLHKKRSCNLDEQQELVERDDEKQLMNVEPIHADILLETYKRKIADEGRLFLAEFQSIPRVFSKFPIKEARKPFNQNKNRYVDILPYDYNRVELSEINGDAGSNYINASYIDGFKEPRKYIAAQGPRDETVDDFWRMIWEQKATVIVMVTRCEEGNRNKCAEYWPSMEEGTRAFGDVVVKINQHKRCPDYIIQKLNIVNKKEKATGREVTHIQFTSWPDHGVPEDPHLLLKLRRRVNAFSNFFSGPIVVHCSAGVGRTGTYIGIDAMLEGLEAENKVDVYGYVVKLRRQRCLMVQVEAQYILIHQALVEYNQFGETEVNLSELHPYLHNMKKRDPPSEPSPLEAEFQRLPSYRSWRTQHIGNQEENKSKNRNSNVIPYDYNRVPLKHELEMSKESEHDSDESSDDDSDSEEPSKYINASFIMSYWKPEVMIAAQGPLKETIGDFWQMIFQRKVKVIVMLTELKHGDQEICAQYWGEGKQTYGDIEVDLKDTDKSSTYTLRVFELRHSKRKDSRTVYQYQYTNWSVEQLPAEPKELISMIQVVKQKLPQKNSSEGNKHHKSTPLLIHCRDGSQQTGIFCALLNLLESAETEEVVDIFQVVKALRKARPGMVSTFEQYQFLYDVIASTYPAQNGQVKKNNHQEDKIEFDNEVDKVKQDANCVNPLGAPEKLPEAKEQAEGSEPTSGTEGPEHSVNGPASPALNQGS
Put plainly: ELISA: MGL-Fc-coated plate, PBL lysate, detection with anti-CD45RO; '-' = no binding. The method, then:
MGL-Fc ligand ELISA. NUNC maxisorb plates (Roskilde, Denmark) were coated with goat anti-human-Fc antibody (4 μg/ml for 1 hour at 37° C., Jackson), followed by a 1% BSA blocking step (30 minutes at 37° C.) and MGL-Fc (1 μg/ml for 1 hour at 37° C.). MGL-Fc coated plates were incubated overnight at 4° C. with cell lysates (10.10⁶ cells/ml for cell lines, 500.10⁶/ml for PBL). After extensive washing, 1 μg/ml monoclonal antibodies were added for 2 hours at room temperature. Binding was detected using a peroxidase-labeled goat anti-mouse antibody (Jackson).
For orientation: An ELISA detects its analyte on a solid surface through an enzyme-linked reagent.

B1: MGL-Fc (extracellular part of human MGL, amino acids 61-289, fused at the C-terminus to human IgG1-Fc) (Fc fusion, UniProt Q8IUN9-2 61-289, looked up)
chain: QNSKFQRDLVTLRTDFSNFTSNTVAEIQALTSQGSSLEETIASLKAEVEGFKQERQAVHSEMLLRVQQLVQDLKKLTCQVATLNNNGEEASTEGTCCPVNWVEHQDSCYWFSHSGMSWAEAEKYCQLKNAHLVVINSREEQNFVQKYLGSAYTWMGLSDPEGAWKWVDGTDYATGFQNWKPGQPDDWQGHGLGGGEDCAHFHPDGRWNDDVCQRPYHWVCEAGLGQTSQ[skipping human IgG1 Fc]
notes: range 61-289;domain: IgG1-Fc; Produced in CHO cells; The numbering 61-289 belongs to the 292-residue form of MGL, so it may not fit the canonical UniProt entry; also called MGL-human Fc; human MGL-Fc
Consider B1, for which the results for the binding result in assay [1], in assay [2] and in assay [3] were “binds”, “binds” and “no binding”, respectively.
